Measured values published in the supplement of paper PMC8728848.
The list shows a part of the results.

Legend:
Assay in all cases: glycan array binding signal (z-score within array); higher = stronger binding
Details in all cases: glycan notation: IUPAC condensed, linker removed
Gal(b1-3)GlcNAc = target: Gal(b1-3)GlcNAc
Outline: (§1)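 The binding signal is a Z-score computed within each array and averaged over linkers. Arrays of the same protein sequence at different concentrations or buffers were also averaged together. Data originate from 3228 arrays in the Consortium for Functional Glycomics database, kept only where the protein sequence was available.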

[1] = target: Gal(b1-3)GlcNAc(b1-2)Man(a1-3)[Gal(b1-3)GlcNAc(b1-2)Man(a1-6)]Man(b1-4)GlcNAc(b1-4)GlcNAc
Outline: as §1

[2] = target: Gal(b1-3)GlcNAc(b1-3)Gal(b1-3)GlcNAc
Outline: as §1

[3] = target: Gal(b1-3)GlcNAc(b1-3)Gal(b1-4)Glc
Outline: as §1

[4] = target: Gal(b1-3)GlcNAc(b1-3)Gal(b1-4)GlcNAc
Outline: as §1

[5] = target: Gal(b1-3)[Fuc(a1-4)]GlcNAc
Outline: as §1

[6] = target: Gal(b1-3)[Fuc(a1-4)]GlcNAc(b1-3)Gal(b1-3)[Fuc(a1-4)]GlcNAc
Outline: as §1

[7] = target: Gal(b1-3)[Fuc(a1-4)]GlcNAc(b1-3)Gal(b1-4)GlcNAc
Outline: as §1

[8] = target: Gal(b1-3)[Fuc(a1-4)]GlcNAc(b1-3)Gal(b1-4)[Fuc(a1-3)]GlcNAc
Outline: as §1

[9] = target: Gal(b1-3)[GlcNAc(b1-6)]GalNAc
Outline: as §1

[10] = target: Gal(b1-3)[Neu5Ac(a2-6)]GalNAc
Outline: as §1

[11] = target: Gal(b1-3)[Neu5Ac(a2-6)]GlcNAc(b1-6)Gal(b1-4)Glc
Outline: as §1

[12] = target: Gal(b1-3)[Neu5Ac(b2-6)]GalNAc
Outline: as §1

[13] = target: Gal(b1-4)GalNAc(a1-3)[Fuc(a1-2)]Gal(b1-4)GlcNAc
Outline: as §1

[14] = target: Gal(b1-4)GalNAc(b1-3)[Fuc(a1-2)]Gal(b1-4)GlcNAc
Outline: as §1

Gal(b1-4)Glc = target: Gal(b1-4)Glc
Outline: as §1

Gal(b1-4)Glc6S = target: Gal(b1-4)Glc6S
Outline: as §1

Gal(b1-4)GlcNAc = target: Gal(b1-4)GlcNAc
Outline: as §1

[15] = target: Gal(b1-4)GlcNAc(a1-6)Gal(b1-4)GlcNAc
Outline: as §1

[16] = target: Gal(b1-4)GlcNAc(b1-2)Man(a1-3)[Gal(b1-4)GlcNAc(b1-2)Man(a1-6)]Man(b1-4)GlcNAc(b1-4)GlcNAc
Outline: as §1

[17] = target: Gal(b1-4)GlcNAc(b1-3)Gal(b1-3)GlcNAc
Outline: as §1

[18] = target: Gal(b1-4)GlcNAc(b1-3)Gal(b1-4)Glc
Outline: as §1

[19] = target: Gal(b1-4)GlcNAc(b1-3)Gal(b1-4)GlcNAc
Outline: as §1

[20] = target: Gal(b1-4)GlcNAc(b1-3)Gal(b1-4)GlcNAc(b1-3)Gal(b1-4)GlcNAc
Outline: as §1

[21] = target: Gal(b1-4)GlcNAc(b1-3)Gal(b1-4)[Fuc(a1-3)]GlcNAc(b1-3)Gal(b1-4)[Fuc(a1-3)]GlcNAc
Outline: as §1

[22] = target: Gal(b1-4)GlcNAc(b1-3)GalNAc
Outline: as §1

[23] = target: Gal(b1-4)GlcNAc(b1-3)[Gal(b1-4)GlcNAc(b1-6)]Gal(b1-4)GlcNAc
Outline: as §1

[24] = target: Gal(b1-4)GlcNAc(b1-3)[GlcNAc(b1-6)]Gal(b1-4)GlcNAc
Outline: as §1

[25] = target: Gal(b1-4)GlcNAc(b1-6)Gal(b1-4)GlcNAc
Outline: as §1

[26] = target: Gal(b1-4)GlcNAc(b1-6)Gal(b1-4)GlcNAc(b1-6)GalNAc
Outline: as §1

[27] = target: Gal(b1-4)GlcNAc(b1-6)GalNAc
Outline: as §1

[28] = target: Gal(b1-4)GlcNAc(b1-6)[Gal(b1-3)]GalNAc
Outline: as §1

Gal3S(b1-3)GalNAc = target: Gal3S(b1-3)GalNAc
Outline: as §1

Gal3S(b1-3)GlcNAc = target: Gal3S(b1-3)GlcNAc
Outline: as §1

[29] = target: Gal3S(b1-3)[Fuc(a1-4)]GlcNAc
Outline: as §1

Gal3S(b1-4)Glc = target: Gal3S(b1-4)Glc
Outline: as §1

Gal3S(b1-4)Glc6S = target: Gal3S(b1-4)Glc6S
Outline: as §1

Gal3S(b1-4)GlcNAc = target: Gal3S(b1-4)GlcNAc
Outline: as §1

B1: HFR-1 (Triticum aestivum) (protein)
chain: MSPQSFTLETTTTTPAAKGSDPSYFQSAPACHEMIQHKELLLHLYAYQNVQKTPDANQAVIVESKRPECFGILAANDWTVYDGPAHNANLVAHAQGLHLGASMAKENWFICFNMVFVNQRFTGSSFKVMGDFQGTAHNGEWAIVGGTGEFAYAQGVIAFKKTQQSERNARMELHVRAMCLSFLRPLLSLGDGSAVAKIGPWGKMSGELLDIPSTPQRLERITIRHGVVIDSLAFSFIDKAGEPYNVGPWGGRRGDNKDTIELAPSEIVTEVSGTVGIFAEDNVEYNAIASLTITTNHRPYGPFGETQSTPFSVPVQDNNNIVGFFACAGKYVEALGVYVRSPVST
glycan array binding signal (z-score) (Gal(b1-3)GlcNAc): -0.214 | glycan array binding signal (z-score) [1]: -0.241 | glycan array binding signal (z-score) [2]: -0.236 | glycan array binding signal (z-score) [3]: 0.08 | glycan array binding signal (z-score) [4]: -0.241 | glycan array binding signal (z-score) [5]: -0.148 | glycan array binding signal (z-score) [6]: -0.116 | glycan array binding signal (z-score) [7]: 0.161 | glycan array binding signal (z-score) [8]: -0.195 | glycan array binding signal (z-score) [9]: -0.094 | glycan array binding signal (z-score) [10]: -0.212 | glycan array binding signal (z-score) [11]: -0.188 | glycan array binding signal (z-score) [12]: -0.222 | glycan array binding signal (z-score) [13]: 0.021 | glycan array binding signal (z-score) [14]: 0.076 | glycan array binding signal (z-score) (Gal(b1-4)Glc): 0.153 | glycan array binding signal (z-score) (Gal(b1-4)Glc6S): 0.057 | glycan array binding signal (z-score) (Gal(b1-4)GlcNAc): -0.209 | glycan array binding signal (z-score) [15]: -0.218 | glycan array binding signal (z-score) [16]: -0.223 | glycan array binding signal (z-score) [17]: -0.196 | glycan array binding signal (z-score) [18]: -0.14 | glycan array binding signal (z-score) [19]: -0.198 | glycan array binding signal (z-score) [20]: -0.233 | glycan array binding signal (z-score) [21]: -0.22 | glycan array binding signal (z-score) [22]: -0.131 | glycan array binding signal (z-score) [23]: -0.098 | glycan array binding signal (z-score) [24]: -0.135 | glycan array binding signal (z-score) [25]: -0.222 | glycan array binding signal (z-score) [26]: -0.215 | glycan array binding signal (z-score) [27]: -0.139 | glycan array binding signal (z-score) [28]: -0.206 | glycan array binding signal (z-score) (Gal3S(b1-3)GalNAc): -0.16 | glycan array binding signal (z-score) (Gal3S(b1-3)GlcNAc): -0.179 | glycan array binding signal (z-score) [29]: -0.139 | glycan array binding signal (z-score) (Gal3S(b1-4)Glc): -0.19 | glycan array binding signal (z-score) (Gal3S(b1-4)Glc6S): -0.123 | glycan array binding signal (z-score) (Gal3S(b1-4)GlcNAc): -0.212
